Reference: article PMC4336329 (PLoS ONE, 2015)
Out of some 310,000 compounds screened, about 14,000 (4.5%) showed an effect of 50% or more. The effect is printed as a negative number. This is one part of the list.

Target: human ether-à-go-go-related gene (hERG) potassium channel (human, UniProt Q12809)
Assay: primary screen, population patch clamp on CHO cells stably expressing hERG
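Further: peak tail current of the secondary pulse compared with the same well before compound.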

Chain of human ether-à-go-go-related gene (hERG) potassium channel (Q12809 whole entry, looked up): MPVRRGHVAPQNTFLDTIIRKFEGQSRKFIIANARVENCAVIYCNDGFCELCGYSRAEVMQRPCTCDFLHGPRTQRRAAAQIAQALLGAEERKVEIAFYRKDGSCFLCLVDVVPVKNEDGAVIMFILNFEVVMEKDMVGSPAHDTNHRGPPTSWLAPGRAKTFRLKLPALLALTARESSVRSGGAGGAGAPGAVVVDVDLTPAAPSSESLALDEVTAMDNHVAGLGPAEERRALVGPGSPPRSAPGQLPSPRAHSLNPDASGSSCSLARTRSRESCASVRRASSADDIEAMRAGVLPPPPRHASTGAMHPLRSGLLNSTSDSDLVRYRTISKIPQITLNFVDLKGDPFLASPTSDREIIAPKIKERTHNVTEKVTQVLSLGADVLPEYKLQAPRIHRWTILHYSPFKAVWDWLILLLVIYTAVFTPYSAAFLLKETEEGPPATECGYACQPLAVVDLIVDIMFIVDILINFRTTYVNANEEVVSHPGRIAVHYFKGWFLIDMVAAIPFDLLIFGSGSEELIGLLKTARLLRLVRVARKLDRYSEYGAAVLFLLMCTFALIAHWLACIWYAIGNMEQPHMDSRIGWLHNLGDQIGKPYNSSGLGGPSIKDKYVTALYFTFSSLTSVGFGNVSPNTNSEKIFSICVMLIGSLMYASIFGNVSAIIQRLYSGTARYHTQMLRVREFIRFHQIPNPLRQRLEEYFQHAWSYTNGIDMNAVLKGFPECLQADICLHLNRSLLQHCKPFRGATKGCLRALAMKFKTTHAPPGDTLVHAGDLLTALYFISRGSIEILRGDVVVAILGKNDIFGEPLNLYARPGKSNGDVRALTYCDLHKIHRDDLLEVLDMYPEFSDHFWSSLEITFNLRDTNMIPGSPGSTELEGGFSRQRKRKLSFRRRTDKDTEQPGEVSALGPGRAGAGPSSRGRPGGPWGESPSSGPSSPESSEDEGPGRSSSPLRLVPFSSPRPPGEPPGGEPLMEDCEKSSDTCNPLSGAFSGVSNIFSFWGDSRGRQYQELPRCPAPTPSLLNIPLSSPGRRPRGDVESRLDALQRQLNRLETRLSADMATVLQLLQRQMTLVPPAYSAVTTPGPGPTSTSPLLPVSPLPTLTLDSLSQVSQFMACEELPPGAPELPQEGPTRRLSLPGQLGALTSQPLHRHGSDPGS

Compound	hERG current change (%, negative = inhibition) at 10uM
Cc1ccc(-n2c(C)cc(C(=O)CSc3nnc4ccccn34)c2C)cc1	-41.8%
O=C(CCC(NC(=O)OCc1ccccc1)C(=O)OCc1ccccc1)NCC(=O)OCc1ccccc1 (centres unmarked)	-12.7%
CCc1cccc(CC)c1N(COC)C(=O)Cn1nnc2ccccc21	-8.6%
Cc1ccc(Cn2nnnc2CN2CCC(O)(c3cccnc3)CC2)cc1.Cl	-13.9%
O=C(NCCC1=CCCCC1)c1ccc(=O)oc1	-5.94%
COCCOC(=O)C1=C(C)NC(=O)NC1c1ccc(-c2cc(Cl)ccc2Cl)o1 (centres unmarked)	9.36%
O=C(O)C(=O)O.c1ccc2c(OCCCCN3CCOCC3)cccc2c1	10.7%
COc1ccccc1C(=O)NCCC(=O)NCCc1ccccc1	11.3%
CCOC(=O)C1CCN(C(=O)CN2C(=O)c3ccccc3Sc3ncccc32)CC1	6.06%
CCO[C@@H]1OC(C(=O)N2CCOCC2)=C[C@H](c2ccc(Br)cc2)[C@H]1CCCO	8.59%
CCOC(=O)CC1C(=O)NCCN1C(=O)c1cccc(OC)c1 (centres unmarked)	8.2%
FC(F)(F)c1nnc2ccc(N3CCCC3)nn12	-8.5%
COCCNC(=O)c1ccc2c(c1)C(=O)c1ccccc1-2	2.22%
Cc1cc(C)c(NC(=O)CSc2nnnn2-c2cccnc2)c(C)c1	-3.3%
O=C(O)c1cccc(S(=O)(=O)NNc2ccccc2C(F)(F)F)c1	31.2%
Cc1ccc(-c2cc(C(=O)Nc3c(C)n(C)n(-c4ccccc4)c3=O)no2)cc1	-25.3%
O=C(CSc1ncnc2c1nnn2Cc1ccccc1F)NCC1CCCO1 (centres unmarked)	-2.7%
Cc1cc(C)c(NC(=O)/C(=C/c2ccco2)c2ccccc2)c(C)c1	-26.7%
CC(=O)c1ccc(OCC(=O)Nc2ccc(N3CCCCC3)cc2)cc1	1.65%
Fc1ccc2nc(Nc3nc4c(F)cc(F)cc4s3)sc2c1	19.7%
Cc1ccc(C2=NN(C(=O)COc3ncnc4ccccc34)C(c3ccco3)C2)cc1 (centres unmarked)	18.2%
NS(=O)(=O)c1ccc(NC(=O)COc2cccc3ccccc23)cc1	18.3%
COc1cc(CN2CCN(Cc3ccc(C)cc3)C(CCO)C2)ccc1O (centres unmarked)	-19.6%

Compound	hERG current change (%, negative = inhibition) at 10uM
CCc1ccc(/C=C2\Oc3ccc(C(=O)OC)cc3C2=O)cc1	-1.19%
CCNc1nc(NCC)n2c(SCC(=O)Nc3cccc(Cl)c3)nnc2n1	-24.4%
CCOC(=O)N1CCN(S(=O)(=O)c2ccc3c(c2)OCC(=O)N3)CC1	3.21%
N#C/C(=C\c1c(F)cccc1Cl)S(=O)(=O)c1ccccn1	3.15%
CC(C)(C)c1csc(SCC(=O)Nc2ccc(Cl)cn2)n1	-8.38%
CC(N)(C(=O)O)c1cccc(OCc2cccc(Cl)c2)c1 (centres unmarked)	10.8%
COc1ccc(NC(=O)C2C(=O)N(CCO)C3(C)CC2c2ccccc2O3)cc1 (centres unmarked)	-7.45%
CCOC(=O)Cc1csc(SCC(=O)Nc2cccc(C#N)c2)n1	-7.85%
Cc1ccc(NC(=O)OCc2cncs2)cc1	2.29%
O=C(NCc1cccnc1)c1ccc(=O)oc1	-8.85%
COc1ccc(NC(=O)CSc2nc(=O)n(CCN(C)C)c3c2CCCC3)cc1OC	-11.5%
O=C(NC1CCCCCCC1)c1ccc2c(c1)OCO2	-4.43%
CC1Cc2ccccc2N1S(=O)(=O)c1cccc(C(=O)N2CCN(c3ncccn3)CC2)c1 (centres unmarked)	-19.3%
Cn1ncc(Br)c1C(=O)NC(=S)N1CCN(c2ccccn2)CC1	8.48%
CSc1cccc(CN2CCC(CO)(Cc3ccccc3)CC2)c1	-44.8%
O=C(CCc1nnc(Cc2ccc(-c3ccccc3)cc2)o1)NCC1CC1	-4.72%
Cc1nnc(SCC(N)=O)n1CCc1ccccc1	-1.66%
O=C(NN1C(=O)/C(=C/C=C/c2ccccc2)SC1=S)c1ccncc1	8.66%
CCC1CCCCN1CCNC(=O)C1CCCN(S(=O)(=O)c2cccc3nsnc23)C1 (centres unmarked)	-41.5%
O=[N+]([O-])c1cccc(-c2ccc(C(=S)N3CCN(c4ccccc4)CC3)o2)c1	27.7%
O=C(NCC(c1ccc(F)cc1)N1CCOCC1)c1cccnc1Sc1ccccc1 (centres unmarked)	3.66%
COC(=O)C1=C(C)Nc2ncnn2C1c1ccco1 (centres unmarked)	6.44%
CN(Cc1nc2ccccc2c(=O)[nH]1)Cc1nc2ccsc2c(=O)[nH]1	1%

Compound	hERG current change (%, negative = inhibition) at 10uM
Cc1ccc(S(=O)(=O)N2CCCCC2)cc1NC(=O)c1ccccn1	-1.13%
CC(=O)NS(=O)(=O)c1ccc(NC(=O)CCc2ccccc2)cc1	15.6%
C/C(=N\NC(=S)NC1CCCCC1)c1ccc(C#N)cc1	14%
CN(CC(=O)Nc1ccccc1Cl)C(=O)COC(=O)c1ccc([N+](=O)[O-])cc1Cl	-16.7%
CC(=O)N1c2c(cc(Br)cc2S(=O)(=O)N2CCN(c3ccccn3)CC2)CC1C (centres unmarked)	-12.3%
CCCCN=C1NN=C(c2cc3ccccc3o2)CS1	-25.9%
O=C(Nc1ccc2c(c1)OCCO2)c1ccc(Cl)c([N+](=O)[O-])c1	6.48%
Cc1csc(NC(=O)c2ccc(S(=O)(=O)N(C)c3ccccc3)cc2)n1	-2.94%
CCOc1ccc(/C=N\NC(=O)c2c(C)nc3cc(C)ccn23)cc1	-2.47%
Cc1cccc(CSCc2ccc(C(=O)NC3CCCC3)o2)c1	-55.5%
Cc1cc(N/N=C/c2ccccc2)nc(N2CCOCC2)n1	-47.8%
COc1ccc(OC)c(NC(=O)CS(=O)(=O)c2cn(CC(=O)N3CCOCC3)c3ccccc23)c1	-1.38%
COc1ccc2c(CC(=O)Nc3ccccc3N3CCOCC3)coc2c1	-39.9%
O=C(COc1ccc(Br)cc1)Nc1ccc(-c2nnc(-c3ccco3)o2)cc1	-1.86%
COc1ccc(S(=O)(=O)N2CCCC2)c(C)c1C	-12.1%
CCOC(=O)N1CCN(C(=O)CSc2nc3c(cnn3-c3ccc(C)cc3)c(=O)[nH]2)CC1	-33.3%
Cc1ccc(NC(=O)Cn2nnc(C(=O)NCc3ccco3)c2N)cc1	4.66%
CCN(CC(=O)Nc1ccccc1C(F)(F)F)C(=O)Cc1cccs1	3.23%
Cc1cc(C(=O)NNS(=O)(=O)c2cccc(Cl)c2)nn1C(C)(C)C	-3.12%
O=C(Nc1cccc(C(=O)N2CCCC2)c1)c1ccccc1Cl	1.24%
CC1(N2CCOCC2)CC2(O)C(=[N+]1[O-])CCc1c2no[n+]1[O-] (centres unmarked)	7.65%
COc1ccc(/C=N/NC(=O)c2[nH]c3ccc(Br)cc3c2-c2ccccc2)c(C(=O)O)c1OC	-4.97%
O=C(CNC(=O)c1ccccc1)OCc1cccc(Br)c1	-17.8%

Compound	hERG current change (%, negative = inhibition) at 10uM
CCOc1ccc(-c2nnc(N3CCCCC3)c3ccccc23)cc1	-6.17%
Cc1cccc(N=N/C(=C\O)C(=O)c2cccs2)c1	0.309%
C=CCn1c(-c2sc(-c3ccccc3)nc2C)n[nH]c1=S	8.64%
CC1CCN(S(=O)(=O)c2ccc(NC(=O)Cc3ccccc3)cc2)CC1	13%
Cc1ccc(C(=O)NCCSc2c(C)[nH]c3ccccc23)cc1[N+](=O)[O-]	-4.03%
O=C(O)/C=C/C(=O)N1CCN(c2ccccc2F)CC1	7.85%
C=CCOC(=O)C(C#N)c1nc2ccccc2nc1N1CCN(Cc2ccccc2)CC1 (centres unmarked)	-62.1%
O=C(CN1CCCCCC1)Nc1ccc(Br)cc1Br	-0.929%
COc1ccc(NC(=O)c2cc(-c3ccccc3O)n[nH]2)cc1Cl	22.9%
C=CCn1c(CNS(=O)(=O)c2ccc(Cl)cc2)n[nH]c1=S	7.76%
CN1C(=O)C2(OCC(CO)([N+](=O)[O-])CO2)c2ccccc21 (centres unmarked)	23.9%
CC1(C)C(C(=O)N2CCN(C(=O)c3ccccc3)CC2)C1(C)C	-3.62%
CCSc1nnc(NC(=O)c2cccnc2Cl)s1	16.3%
C=CCn1c(Sc2nnc(C)s2)nc2c1c(=O)[nH]c(=O)n2C	11.2%
COc1cc(S(=O)(=O)NCC(c2ccco2)N2CCCCC2)ccc1NC(C)=O.Cl (centres unmarked)	-3.07%
CCC(=O)Nc1ccc(N2CCN(C(=O)c3ccccc3C)CC2)cc1	0.168%
O=C(O)C1CCc2sc3[nH]c(=S)n(-c4ccccc4)c(=O)c3c21 (centres unmarked)	21.6%
Cn1c(-n2c(-c3ccco3)nc3ccccc3c2=O)nc2ccccc21	11.6%
O=c1c2ccccc2c(C=NCCc2ccccc2)c(O)n1Cc1ccccc1	-5.61%
COc1ccc(-n2c3c(cc(C(=O)Nc4ccc(C)cc4)c2=O)C(=O)CCC3)cc1	-5.94%
